This is one part of the list. Rule as the data show it: active = 3.2 or more and inactive = the rest. The signal is at background level for most entries.
Key:
Assay in all cases: enrichment score (SH2-bound / input frequency) (ratio); bacterial display of known human phosphotyrosine sites (pTyr-Var adds point mutants) read by sequencing; higher = stronger binding; tyrosines were phosphorylated by kinases first
Conditions in all cases: peptide library: pTyr-Var
[1] = target: SHP2 C-SH2 domain E139D
[2] = target: SHP2 C-SH2 domain wild-type
[3] = target: SHP2 N-SH2 domain L43F
[4] = target: SHP2 N-SH2 domain T42A
[5] = target: SHP2 N-SH2 domain T52S
[6] = target: SHP2 N-SH2 domain wild-type

Measured: enrichment score
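Also: displayed peptides selected on beads carrying the immobilized SH2 domain, with library peptides lacking any tyrosine serving as negative controls.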

CTTIHYSYMCN [TP53_Y234_N235S]
inactive: [3] 3.13 | [4] 2.54 | [5] 3 | [6] 2.87
active: [1] 3.43 | [2] 4.01

CTTIHYSFMCN [TP53_Y234_N235S_YF]
inactive: [4] 2.71 | [6] 2.93
active: [1] 3.8 | [2] 3.76 | [3] 3.55 | [5] 3.24

CTTIHYTYMCN [TP53_Y234_N235T]
active: [1] 3.95 | [2] 4.27 | [3] 3.71 | [4] 3.58 | [5] 3.41 | [6] 3.46

CTTIHYNYMCD [TP53_Y234_N239D]
active: [1] 3.68 | [2] 5.55
inactive: [3] 2.77 | [4] 2.54 | [5] 2.78 | [6] 2.23

CTTIHYNYMCH [TP53_Y234_N239H]
inactive: [4] 3.1 | [6] 3.07
active: [1] 4.62 | [2] 5.4 | [3] 3.5 | [5] 3.51

CTTIHYNFMCI [TP53_Y234_N239I_YF]
active: [1] 4.11 | [2] 3.69 | [3] 3.55 | [5] 3.24
inactive: [4] 2.85 | [6] 3.13

CTTIHYNYMCK [TP53_Y234_N239K]
inactive: [4] 2.42 | [5] 2.94
active: [1] 3.79 | [2] 4.1 | [3] 3.3 | [6] 3.28

CTTIHYNYMCS [TP53_Y234_N239S]
active: [1] 5.24 | [2] 6.05 | [3] 3.69 | [5] 3.75
inactive: [4] 3 | [6] 3.12

CTTIHYNFMCS [TP53_Y234_N239S_YF]
active: [1] 4.81 | [2] 4.59 | [3] 4.49 | [4] 3.58 | [5] 4.32 | [6] 4.34

CTTIHYNFMCT [TP53_Y234_N239T_YF]
inactive: [1] 3.19 | [2] 3.06 | [3] 3.01 | [4] 2.89 | [5] 2.33
active: [6] 3.8

CITIHYNFMCN [TP53_Y234_T230I_YF]
active: [1] 3.41
inactive: [2] 2.87 | [3] 2.64 | [4] 2.34 | [5] 2.5 | [6] 2.96

CNTIHYNFMCN [TP53_Y234_T230N_YF]
active: [1] 3.28
inactive: [2] 2.82 | [3] 2.65 | [4] 2.45 | [5] 3.01 | [6] 2.46

CPTIHYNYMCN [TP53_Y234_T230P]
active: [2] 4.6
inactive: [1] 2.91 | [3] 1.99 | [4] 1.58 | [5] 2.26 | [6] 1.79

CSTIHYNFMCN [TP53_Y234_T230S_YF]
inactive: [1] 3.18 | [2] 3.17 | [3] 2.96 | [4] 2.49 | [5] 2.99 | [6] 2.75

CTAIHYNFMCN [TP53_Y234_T231A_YF]
active: [1] 3.95 | [2] 3.5 | [3] 3.37
inactive: [4] 2.82 | [5] 3.12 | [6] 2.81

CTIIHYNYMCN [TP53_Y234_T231I]
active: [1] 4.86 | [2] 4.59 | [3] 3.47 | [5] 3.48 | [6] 3.33
inactive: [4] 2.67

CTIIHYNFMCN [TP53_Y234_T231I_YF]
active: [1] 3.57 | [2] 3.24
inactive: [3] 3.13 | [4] 2.53 | [5] 3.01 | [6] 3.05

CTNIHYNFMCN [TP53_Y234_T231N_YF]
inactive: [6] 2.84
active: [1] 3.71 | [2] 3.41 | [3] 3.75 | [4] 3.38 | [5] 3.38

CTTIHDNFMCN [TP53_Y234_Y234D_YF]
inactive: [1] 1.54 | [2] 1.54 | [3] 1.58 | [4] 1.49 | [5] 1.53 | [6] 1.62
